Read counts are not given, so values of variants with three or more changes are uncertain.
B1: OR4K15 (parent)
chain: GUUAACGGUCAUAGGCCAUGGAAACUAGGAGCACCAUUUCGCUGCCAGUGAAGAAAUGAACAAAGAAAAUCUGGGCCAGGCAGGCAUCAAAAGAAAUAGUCUUGCGCUCAACCAGAAAGUCUGUAAUCAUUUUAAGGGUA

Variants of: B1
Assay: self-cleavage, relative activity (ratio to wild type); higher = more cleavage; in vitro, sequencing; the parent is a self-cleaving ribozyme

Row | Variant | self-cleavage
1 | G8A U100C U127C | 2.37
2 | U9C A47U A118G U122C | 0.17
3 | U9C A22G A23G A126U | 0.96
4 | U9C A55G U102C | 1.14
5 | C6A U43A A96G | 0
6 | G7A U9A U49C A55G A59G U133C | 1.06
7 | U9A A22G C45U | 0.75
8 | C6U A67G U130C U132C | 0.91
9 | G7A A51G A126G | 1.39
10 | U9C A24U A110G | 0.07
11 | G7U U39C U72A A114U | 1.5
12 | G7A A22U A30G | 0.2
13 | U9C A33G A69C U131C | 0.87
14 | G7A A23G A24C C40U A55G A140G | 0.96
15 | U9A A56G U57C U102C A114U | 0.03
16 | U9A A117G U133C | 1.64
17 | U9A A30G U43C A63G U124C | 1.12
18 | U9A A36U U133C | 1.14
19 | C6U A30G A63G U87C A116G | 1.52
20 | U9A A68G A91G U103C | 0.23
21 | U9A A86U U100C U120C | 1.85
22 | G7A A24G A52G U108A A111C | 0.02
23 | G7A A55G U122C | 0.69
24 | U9C A55G A110G A114G | 0.16

Row | Variant | self-cleavage
25 | U9C A23U A94G U100C | 2.63
26 | U9C A52G A59G A95G U103A | 1.51
27 | U9A A54G A64G C85U A114G | 0.51
28 | U9C A36G U37C A96G | 2.08
29 | G7U G20A A22G A62U | 1.41
30 | G8A A11U A91G A110G | 0.09
31 | U9C A54U A92U | 1.48
32 | C6U A110G U131G | 0.16
33 | A5U A117G U127C | 1.72
34 | U9C A27U A96G U103A A117G | 1.19
35 | U9A A27G A118G | 1.23
36 | C6U A60G A64U A67G U72A | 0.3
37 | G8U A60G A126G A135G | 0.85
38 | A5U U9C U72C A116G | 0.13
39 | A5U U12A A59G | 1.3
40 | U9C A22G A69G | 0.57
41 | U9C A55G A129G | 1.88
42 | G7A A82G A98C A140U | 0.28
43 | U9C A33G A96G | 0.98
44 | G8C G14C U38A A111G A118G U132C | 0.02
45 | U9A A56G U70C A117G | 1.23
46 | G8U A56G A95G | 2.64
47 | U9A U43C A63U | 1.48
48 | U9C A24G A52G A86U U87C U100C | 2.84

Row | Variant | self-cleavage
49 | U9C A18U A66U A89G U100C | 1.77
50 | U9C A22U A52U A125G | 0.8
51 | G7A A36G A67G A140G | 1.64
52 | U9A A52G A56G U139C | 0.94
53 | U9A A33G U131C | 0.56
54 | U9A A86C A98G U130C | 0.31
55 | U9A A52G A90G | 0.36
56 | U9C A24G A30G A69G | 0.94
57 | U9A A55G G75A A89U A129G | 0.17
58 | U9C A23G A62C U70C U124A | 0.07
59 | U9C A55G A62G A66G G106U | 0.02
60 | U9A U19C A64G U72A A86U | 0.32
61 | C6U A18G A47G | 1.18
62 | U9A A36U U103C | 0.38
63 | C6U U57C A86U A94G A117G | 0.53
64 | U9C A22G A33G G41A A63G | 0.71
65 | U9C A51C A78G A114C U120C | 0.01
66 | C6U A30G A91C A140G | 1.05
67 | A5U U43C A68G | 1.24
68 | U9A C10U U12A A55G U100C A125G | 0.55
69 | U9C A18G A67U | 1.39
70 | U9C A36G A66G A90G | 1.04
71 | U9C A51G A117G U130C | 1.64
72 | U9C A23G U38A A111G | 0.03

Row | Variant | self-cleavage
73 | U9A A60G A64U U108C | 0.04
74 | G7U A22G A47U A95G | 1.61
75 | U9A G21A A22G U39C A52G A62G A66G A67G | 0.68
76 | U9A A47G A62U C76U A89G A111G | 0.03
77 | U9A U103G A111G | 0.04
78 | C6U G15U A63G A135G | 1.46
79 | U9A A33G U39A | 0.94
80 | G7U C85U U120C | 0.34
81 | U9C A24G A89G A135U | 0.64
82 | G8U U72C U132C | 0.25
83 | U9A A36G A117G | 1.02
84 | U9C A22G A78G | 0.3
85 | C6U U38C U120C | 0.68
86 | G8U U38C A118G | 1.76
87 | C6U A116G U120C A126G A140U | 0.34
88 | U9A A51U A78G A89G | 0.12
89 | C6U A22G U108C | 0.04
90 | A5U U9A A59G U100C U122A U132C | 2.15
91 | G7A A24G A66U U97C A117G U120C | 0.29
92 | G7A A47U A52G G58U G83U A94G | 0.31
93 | U9C A23G A126G | 0.85
94 | U9C A33U A51U U100C | 2.08
95 | G7A U49A A125U U131C | 1.56
96 | A5U U9C A24G A33G A86G | 1.44

Row | Variant | self-cleavage
97 | U9C A36U A55G A114G | 0.15
98 | G7A A24G U100C | 1.94
99 | G8U U12A A23U C71A | 0.91
100 | U9C A33G A52G | 1.09
101 | G8U A30G A33G U124C | 1.08
102 | G8U A27G A78G A118G | 0.47
103 | G8A A86U A114C | 0.1
104 | C6U A30G A52G A60G U102C A114U | 0.26
105 | U9C A47G A110U A111C A129U A135G | 0.02
106 | A5U U100A U108C | 0.01
107 | A5U A116C U130C | 0.06
108 | G8A U19A A64U | 1.69
109 | U9C A47U A67G | 0.65
110 | U9C A27G G29U A96G A118G | 0.5
111 | U9C A54U A86G | 1.11
112 | U9C A47G A117G | 1.99
113 | G8A A18G U43A U100C | 1.15
114 | U9C A24G U108C | 0.06
115 | G7A A67C A134G | 2.21
116 | U9C A52U A66G A111U A129G | 0.08
117 | G7A A23G U37C | 1.39
118 | U9C A23U A64G | 0.64
119 | U9C A22G U38C | 0.39
120 | U9C A18G U102C A111G | 0.06

Row | Variant | self-cleavage
121 | U9A G14U U49C U100C | 1.27
122 | A5U U39C A98U U133C A140G | 2.35
123 | U9A U43C U130C | 0.74
124 | G7U A24G U43G A47G A91U | 0.92
125 | U9A A22G A82U | 0.25
126 | G7A A18U U19A U102C A114U | 0.12
127 | U9C A33G C105U | 0.12
128 | U9A A94G A140U | 1
129 | C6A U37C A52G A110G U120C | 0.02
130 | U9A U57C G79U | 0.17
131 | U9C A13U G58U A91G | 1
132 | U9C A52G A55U U131C | 1.59
133 | C6A A18G A67G | 0.48
134 | G7A A64G A90G | 0.63
135 | G7A U9C A47G A55G A56G A82G A92G U122C | 0.24
136 | U9A A18U A22G A68U | 1.49
137 | C6U U9C U102C | 1.02
138 | G8A A22U A33G U49A A67G A86U A95G | 1.72
139 | G7A U39C A51G G84U | 0.43
140 | A5U C10A A55G A66G U124C | 0.9
141 | U9C A18C A22G | 1.07
142 | G7A A51U A52G A90U A129C | 1.26
143 | U9A A24G U43C A52G U87C | 1.5
144 | C6A U19C A94G | 1.32

Row | Variant | self-cleavage
145 | U9C A23G A47G A60U A126C | 0.3
146 | U9A U19C U49A | 1.4
147 | U9A U39C A60G | 1.6
148 | U9C A23G A33G A52G A126G | 0.67
149 | U9C A18G A24G A91G | 0.75
150 | U9A A23G A52G U124C | 0.27
151 | G7A U49C A59G A111U G138A | 0.04
152 | G7U U87A A129G U131C | 1.01
153 | U9A U37C U39G | 0.81
154 | G7A A23G A33U | 1.97
155 | C6G C16U U19C A86G | 1.35
156 | C6U A59G A63G A89C | 1.16
157 | G7U G29U A94U | 1.37
158 | G7C A18U U108C A129G | 0.03
159 | U9A A54U A64G A67G A78G A129U U132C | 0.08
160 | U9C A51U A54G U103C | 1.47
161 | G8A A30G A56G | 1.06
162 | U9A A30G A63G | 1.11
163 | U9A U37C A69G U103C | 0.73
164 | G7A A23G A24U A78U | 0.25
165 | C6U G80A G123A | 0.17
166 | G7A U70C U127C | 0.22
167 | C6A U122G U132C | 2
